# Laboratory results: PubChem BioAssay AID588342 (National Center for Advancing Translational Sciences (NCATS), 2011)
# Out of some 360,000 compounds screened, about 25,000 (6.9%) were called active. Inconclusive means that the source gave no clear call. Such entries were picked first, then a sample of the others. The call rests on the fitted dose curve; in most records, active means well fitted inhibition curve with a large enough effect; inconclusive means small, poorly fitted or top-dose-only effect; inactive means flat fitted curve, though single readings scatter. Potencies beside an inconclusive call are fits to weak or partial responses and may not hold up.
# Target: Luciferin 4-monooxygenase (Photinus pyralis) (UniProt P08659)
# Assay: qHTS profiling assay for firefly luciferase inhibitor/activator using purifed enzyme and Km concentrations of substrates (counterscreen for miR-21 project); further: nearly all actives have a fitted effect of over 55% in size;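 on activity change, negative = inhibition: plate controls were vehicle for no effect and reference inhibitor for full effect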
# Settings: purified FLuc, luminescence inhibition; series mostly up to 57.5 µM; activity change, negative = inhibition: at the top concentration
# In short: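 Purified P. pyralis luciferase (10nM final) with 10uM D-luciferin and 10uM ATP (Km levels) in 50mM Tris acetate pH 7.5, 10mM Mg acetate, 0.01% Tween-20, 0.05% BSA; qHTS 6-point titration, ~60 µM downward; luminescence read.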
# Potency means the concentration at half of the fitted maximal effect; tags describe the fitted curve by direction and shape.
# Chain of UniProt P08659 (P08659 whole entry, looked up): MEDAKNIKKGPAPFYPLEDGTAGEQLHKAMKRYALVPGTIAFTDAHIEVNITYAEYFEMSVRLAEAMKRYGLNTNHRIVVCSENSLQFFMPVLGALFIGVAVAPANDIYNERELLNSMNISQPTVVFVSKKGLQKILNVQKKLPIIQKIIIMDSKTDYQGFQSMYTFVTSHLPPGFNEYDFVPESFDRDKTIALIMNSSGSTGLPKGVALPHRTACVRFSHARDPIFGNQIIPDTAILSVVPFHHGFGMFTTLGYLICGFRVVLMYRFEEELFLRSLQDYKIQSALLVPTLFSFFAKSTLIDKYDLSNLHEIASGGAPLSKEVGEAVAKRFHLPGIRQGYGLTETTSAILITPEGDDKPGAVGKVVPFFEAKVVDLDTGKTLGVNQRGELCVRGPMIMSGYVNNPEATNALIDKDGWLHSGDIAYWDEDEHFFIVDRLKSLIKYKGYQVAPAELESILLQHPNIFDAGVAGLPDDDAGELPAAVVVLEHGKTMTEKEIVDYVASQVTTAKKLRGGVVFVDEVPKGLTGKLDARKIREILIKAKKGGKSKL
SMILES,"activity change, negative = inhibition",Potency
C=CCSc1nc2sc3c(c2c(=O)[nH]1)CC(C)(CC)OC3 (configuration not stated),inactive: -1.27%,
c1ccc2[nH]c(CSc3nc4ccccc4o3)nc2c1,,"inconclusive: 26.9 µM [inhibitor, single point]"
CCC(C)NC(=O)c1cc(-c2ccc3c(c2)OCO3)on1 (configuration not stated),,active: 3.38 µM
Cc1ccc(CNC(=O)c2ccc3c(O)c(S(=O)(=O)c4ccc(Cl)cc4)c(=O)[nH]c3c2)cc1,,"inconclusive: 13.5 µM [inhibitor, partial curve]"
C/C(=N\Nc1ccc(F)cc1F)c1ccccc1O,,active: 19 µM
Cc1ccsc1C(=O)Nc1ccccc1N1CCOCC1,,active: 19 µM
CN(C)c1cccc(NC(=O)CCc2ccccc2)c1,,"inconclusive: 16.9 µM [inhibitor, partial curve]"
Cc1cc(C)cc(Oc2coc3cc(OC(=O)c4cccs4)ccc3c2=O)c1,,"inconclusive: 2.69 µM [inhibitor, partial curve, poor fit]"
Clc1ccc(-c2cc(-c3ccccn3)on2)c(Cl)c1,,active: 0.0757 µM
COC(=O)c1cnn2c(C(F)(F)F)cc(-c3ccccc3)nc12,inactive: 1.58%,
CC(=O)Nc1nc2ccc(Br)cc2s1,,active: 16.9 µM
N#Cc1c(NC(=O)C2CCCO2)sc2c1CCCCCC2 (configuration not stated),,"inconclusive: 26.9 µM [inhibitor, single point]"
O=C(COc1ccccc1)Nc1ccc2c(c1)nc1n2CCSC1,,active: 21.3 µM
O=C(Cn1nnc2c(cnn2-c2ccc(F)cc2)c1=O)OC1CCCCC1,,"inconclusive: 23.9 µM [inhibitor, partial curve]"
O=C(O)c1cc(N=Nc2c(O)ccc3ccccc23)cc(C(=O)O)c1,,"inconclusive: 33.8 µM [inhibitor, partial curve, poor fit]"
CCC(=O)OCC(=O)c1cc(C)n(-c2ccc(Br)cc2)c1C,,active: 4.26 µM
CCn1c(SCC(=O)Nc2ccc(NC(=O)c3cccs3)cc2)nnc1-c1cccnc1,,"inconclusive: 30.1 µM [inhibitor, single point]"
CCCCOC(=O)c1cccc(NC(=O)/C=C/c2ccccc2Cl)c1,,active: 6.75 µM
CCc1nnc(NS(=O)(=O)c2ccc(NC(=O)c3ccccc3O)cc2)s1,,"inconclusive: 23.9 µM [inhibitor, single point]"
COc1ccc(-c2csc(NC(=O)Cc3ccccc3F)n2)cc1OC,,"inconclusive: 23.9 µM [inhibitor, partial curve]"
Cc1ccc(F)cc1NC(=S)NCCc1ccccc1,,"inconclusive: 37.9 µM [inhibitor, partial curve, poor fit]"
c1cc2c(cc1-c1[nH]ncc1CN1C[C@H]3CC[C@H]1C3)OCO2,inactive: 1.13%,
N#Cc1ccc2c(c1)C[C@]1(c3ccsc3)OC3=C(C(=O)OC4(CCCCC4)C3)C2O1,,"inconclusive: 3.09 µM [inhibitor, partial curve, poor fit]"
COc1ccc2c(c1)-c1nc(/N=C/c3ccccc3O)sc1CC2,,"inconclusive: 10.7 µM [inhibitor, partial curve, poor fit]"

SMILES,"activity change, negative = inhibition",Potency
CCN(c1ccccc1)c1ncnc2c1cnn2-c1ccccc1,,active: 19 µM
CC12COC3(C(=O)NCCc4ccccc4)CC1CCC32C (configuration not stated),,"inconclusive: 26.9 µM [inhibitor, partial curve, poor fit]"
CCOC(=O)c1c(-c2ccccc2)csc1NC(=O)CSc1nc(C)cc(C)n1,inactive: 4.51%,
CCc1nc2ccc(C(=O)NCCc3ccco3)cc2nc1CC,,"inconclusive: 23.9 µM [inhibitor, single point]"
Fc1ccc(/C=N/n2cnn(Cc3ccccc3Cl)c2=S)cc1,,"inconclusive: 30.1 µM [inhibitor, partial curve, poor fit]"
COc1cc(OC)cc(C(=O)Nc2cc(-c3nc4cccnc4s3)ccc2C)c1,,"inconclusive: 12 µM [inhibitor, partial curve, poor fit]"
COc1cc(CN2CCN(CC3CC3)CC2CCO)cc(OC)c1 (configuration not stated),inactive: 2.3%,
O=C(N/N=C/c1ccccn1)c1cc(-c2ccncc2)nc2ccccc12,,"inconclusive: 26.9 µM [inhibitor, single point]"
O=C(/C=C/c1ccc(O)cc1)c1c(O)cc(O)cc1O,,"inconclusive: 21.3 µM [inhibitor, partial curve, poor fit]"
COc1ccc(NC(=O)C2CCN(S(=O)(=O)c3ccc4c(c3)CCCC(=O)N4)CC2)c(OC)c1,inactive: -8.05%,
C[C@@H](Nc1nc(-c2ccccc2)nc2c1oc1ccccc12)C(=O)O,,"inconclusive: 21.3 µM [inhibitor, partial curve, poor fit]"
O=C(CSc1ccccc1Cl)c1ccco1,,"inconclusive: 26.9 µM [inhibitor, single point]"
c1cncc(-c2csc(NCc3ccco3)n2)c1,,"inconclusive: 23.9 µM [inhibitor, single point]"
O=C(O)c1ccc(NC2=C(N3CCOCC3)C(=O)c3ccccc3C2=O)cc1,,"inconclusive: 23.9 µM [inhibitor, partial curve, poor fit]"
CC1(C)CC(=O)C=C(c2ccc(-c3ccccc3)cc2)C1,,"inconclusive: 2.69 µM [inhibitor, partial curve]"
CCOC(=O)C1CCN(C(=O)Nc2ccc(OC)c(OC)c2)CC1,inactive: -0.579%,
O=C(Nc1ccc(Oc2ncnc3cc(Cl)ccc23)nc1)c1ccc(F)cc1,inactive: -1.42%,
CCOc1ccc2nc(N3CCCC(C(=O)NCCCN4CC(C)CC(C)C4)C3)sc2c1 (configuration not stated),,"inconclusive: 26.9 µM [inhibitor, single point]"
COC(=O)C(Cc1c[nH]c2ccccc12)NC(=O)c1cccs1 (configuration not stated),,"inconclusive: 21.3 µM [inhibitor, single point]"
CCc1nc(NCc2cccnc2)c2oc3ccccc3c2n1,,"inconclusive: 21.3 µM [inhibitor, partial curve]"
CSc1nn(Cc2cccc(Cl)c2)c(N(C(C)=O)C(C)=O)c1S(=O)(=O)c1ccccc1,inactive: -1.72%,
Cc1cc(C(=O)NCc2cccs2)no1,inactive: 2.74%,
Oc1ccc(-c2n[nH]c(=S)n2-c2ccc3c(c2)OCCO3)cc1,,"inconclusive: 26.9 µM [inhibitor, partial curve]"
